In paper PMC4336329 (PLoS ONE, 2015):
Out of some 310,000 compounds screened, about 14,000 (4.5%) showed an effect of 50% or more. Effects have a minus sign here. The list shows a part of the results.

Molecular target: human ether-à-go-go-related gene (hERG) potassium channel (human, UniProt Q12809)
Assay: primary screen, population patch clamp on CHO cells stably expressing hERG
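Also: peak tail current of the secondary pulse compared with the same well before compound.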

Sequence of human ether-à-go-go-related gene (hERG) potassium channel (Q12809 whole entry, looked up): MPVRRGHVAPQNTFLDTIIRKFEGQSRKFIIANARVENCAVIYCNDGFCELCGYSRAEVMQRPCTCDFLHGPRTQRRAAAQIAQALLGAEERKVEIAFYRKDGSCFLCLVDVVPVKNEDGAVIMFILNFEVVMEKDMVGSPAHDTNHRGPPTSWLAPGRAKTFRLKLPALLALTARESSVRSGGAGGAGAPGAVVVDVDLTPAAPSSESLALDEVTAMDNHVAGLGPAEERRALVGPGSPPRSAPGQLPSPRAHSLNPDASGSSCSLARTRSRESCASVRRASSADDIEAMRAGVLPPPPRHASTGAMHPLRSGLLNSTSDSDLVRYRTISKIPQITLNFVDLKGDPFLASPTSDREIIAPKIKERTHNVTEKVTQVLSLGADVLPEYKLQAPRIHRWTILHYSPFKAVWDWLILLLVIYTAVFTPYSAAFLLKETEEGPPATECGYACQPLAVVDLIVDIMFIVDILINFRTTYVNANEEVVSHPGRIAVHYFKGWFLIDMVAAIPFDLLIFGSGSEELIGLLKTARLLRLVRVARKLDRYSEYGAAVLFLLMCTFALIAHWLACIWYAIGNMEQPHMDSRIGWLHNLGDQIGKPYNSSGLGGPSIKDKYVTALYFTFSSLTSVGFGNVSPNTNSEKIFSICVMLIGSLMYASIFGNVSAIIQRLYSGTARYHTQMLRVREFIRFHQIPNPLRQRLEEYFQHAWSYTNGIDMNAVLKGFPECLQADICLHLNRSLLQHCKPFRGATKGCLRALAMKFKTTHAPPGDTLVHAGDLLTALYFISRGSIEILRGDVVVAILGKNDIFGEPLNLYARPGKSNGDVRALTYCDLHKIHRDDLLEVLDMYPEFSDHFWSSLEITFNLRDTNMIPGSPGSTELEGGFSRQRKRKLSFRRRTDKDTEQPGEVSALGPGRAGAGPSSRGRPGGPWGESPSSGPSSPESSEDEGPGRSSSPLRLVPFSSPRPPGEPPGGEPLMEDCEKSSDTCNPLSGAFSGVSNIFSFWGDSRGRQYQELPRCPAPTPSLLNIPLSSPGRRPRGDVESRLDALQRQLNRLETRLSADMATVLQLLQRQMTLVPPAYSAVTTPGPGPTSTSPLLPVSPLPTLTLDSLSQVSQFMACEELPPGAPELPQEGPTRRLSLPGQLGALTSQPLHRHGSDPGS

| Structure (SMILES) | hERG current change (%, negative = inhibition) at 10uM [%] |
| --- | --- |
| COCCn1c(SCC(=O)Nc2c(C)n(C)n(-c3ccccc3)c2=O)nc2ccccc2c1=O | -19.6 |
| Cc1nn(C(C)CC(=O)O)c(C)c1C (centres unmarked) | 10.2 |
| Cc1ccc(Cl)c(Cn2cnc3c(cnn3C(C)(C)C)c2=O)c1F | -9.61 |
| CC(Oc1ccc(C(C)(C)C)cc1)C(=O)NC1CC(C)(C)NC(C)(C)C1 (centres unmarked) | 7.54 |
| COc1ccc(N(C)C(=O)c2oc(=O)c3ccccc3c2-c2ccc(C)cc2)c(OC)c1 | -4.67 |
| CC(C)Oc1ccc(Cc2c(O)nc(NCCCN(C)C)[nH]c2=O)cc1 | 7.19 |
| N#CCCN1CCN(C(CNS(=O)(=O)c2ccc(Cl)cc2)c2ccccc2)CC1 (centres unmarked) | -34.2 |
| C1CSC2(N1)C1CC3CC(C1)CC2C3.Cl (centres unmarked) | 8.27 |
| O=c1cc(-c2ccccc2)n(S(=O)(=O)c2ccc3ccccc3c2)o1 | -3.67 |
| CCCCC1=NN(C(=O)c2ccncc2)C(O)(C(F)(F)F)C1 (centres unmarked) | 23.1 |
| C(=N\Nc1ncnc2ccccc12)/c1ccccc1 | 0.173 |
| Cc1cc(C)c2c(n1)sc1c(N3CCN(CCO)CC3)ncnc12 | 2.49 |
| O=C(NOCc1ccccc1)c1ccc(Cl)cc1 | -17 |
| Nc1nc2ccccc2cc1S(=O)(=O)c1ccccc1 | 16 |
| Cn1c(CC(=O)Nc2ccccc2Cl)nnc1SCC(=O)NC1CCCCC1 | 14.3 |
| Cl.OC(c1ccc(Cl)cc1)C(CN1CCOCC1)c1ccccc1 (centres unmarked) | 6.54 |
| Cn1cc([N+](=O)[O-])c(C(=O)Nc2cc(Oc3ccccc3)cc([N+](=O)[O-])c2)n1 | 11.5 |
| COC(=O)C1CC(O)CN1C(=O)Nc1ccccc1 (centres unmarked) | -26 |
| Cc1ccc(-c2cc(-c3ccco3)c(C#N)c(=O)[nH]2)cc1 | 18.1 |
| Cc1ccc(NC(=O)COC(=O)c2nn(C)cc2Cl)cc1 | -9.06 |
| COc1ccc(OC)c(N(CC(=O)Nc2ccccc2C(=O)NCc2ccco2)S(C)(=O)=O)c1 | -18.6 |
| Cc1cc(C)nc(N2CCCC(C(=O)NCc3cccs3)C2)n1 (centres unmarked) | -7.77 |
| CCCCOc1ccccc1C1C(C(N)=O)=C(C)Nc2nnnn21 (centres unmarked) | 18.8 |

| Structure (SMILES) | hERG current change (%, negative = inhibition) at 10uM [%] |
| --- | --- |
| CN1C(=O)N(C)C2C1NC(=O)N2C (centres unmarked) | -0.412 |
| Cc1ccc(NC(=O)C2CCCN2S(=O)(=O)c2cccc3cccnc23)c(C)c1 (centres unmarked) | -15 |
| Brc1ccc(C[n+]2ccccc2)cc1.[Br-] | -9 |
| COc1ccc(NC(=O)CNCCC2=CCCCC2)cc1 | 7.2 |
| Cc1c(C)n(C(=O)CN2CCN(c3ccccn3)CC2)c2ccccc12 | -15.3 |
| O=C(COc1cccc(Br)c1)N/N=C1\CCCc2ccccc21 | 5.63 |
| CCOc1cc(Br)cc(C(c2c(C(=O)O)[nH]c3ccccc23)c2c(C(=O)O)[nH]c3ccccc23)c1O | 18.8 |
| Cc1ccc(C2=NS(=O)(=O)N(C)C(C(=O)NCc3ccc(F)cc3)=C2)cc1 | -28.4 |
| CNC(C)C(=O)NC(C(=O)N1CCCC1C(=O)Nc1ccc2ncccc2c1)C(C)C.O=CO (centres unmarked) | 9.98 |
| NC(=O)COC(=O)/C=C/c1ccccc1[N+](=O)[O-] | 0.723 |
| O=[N+]([O-])c1ccccc1Oc1ccccc1Cl | -10.3 |
| O=C1C(Cc2cccc([N+](=O)[O-])c2)SC(=Nc2ccccc2)N1c1ccccc1 (centres unmarked) | 3.53 |
| CCOc1ccc(N/C=C/C(=O)c2ccc3ccccc3c2)c([N+](=O)[O-])c1 | -0.584 |
| Cc1cc(C(=O)COC(=O)C2=NNC(=O)CC2)c(C)n1-c1ccc(OC(F)F)cc1 | -48.4 |
| O=C(COc1ccccc1O)N1CCN(C(=O)c2ccco2)CC1 | -24.8 |
| Cc1ccc(Nc2ncc(C(=O)NCCCN3CCN(C)CC3)c3ccccc23)cc1Cl | -61.1 |
| CCn1nnnc1-c1ccc(OC)c(S(=O)(=O)NCCc2ccccc2)c1 | -10.9 |
| CC(C)Nc1nc(C#N)nc(NC(C)C)n1 | 0.219 |
| COc1ccc(NC(=O)Nc2nnc(Cc3ccc(F)cc3)s2)cc1 | 19.5 |
| COc1ccc(NS(=O)(=O)c2ccc3ccccc3c2)c2ncccc12 | 13 |
| C/C(N)=C(/C#N)C(=O)COC(=O)c1cccc2ccccc12 | -8.17 |
| CNC(=S)Nc1ccc2[nH]c(=O)[nH]c2c1 | 47.5 |
| CCC(=O)N1CCc2cc(S(=O)(=O)CCC(=O)Nc3nc(C)cs3)ccc21 | -15.5 |

| Structure (SMILES) | hERG current change (%, negative = inhibition) at 10uM [%] |
| --- | --- |
| Cc1cc(F)c(F)c(C(=O)N2C(C)CCCC2C)c1Cl (centres unmarked) | -21.7 |
| Cc1ccc(S(=O)(=O)NCCSc2ccccc2)cc1[N+](=O)[O-] | -0.246 |
| CC(=O)c1ccc(Nc2c3c(c(C#N)c4nc5ccccc5n24)CCC3)cc1 | -73.2 |
| Cc1nnc(SCC(=O)Nc2ccc3c4c(cccc24)CC3)n1C | 12.5 |
| CCCCC(=O)NC(=S)Nc1ccccc1N1CCCCC1 | -13.9 |
| Cc1ccc(S(=O)(=O)N2CCC(C(N)=O)CC2)cc1C(=O)NC1CCCCC1 | 18.9 |
| COc1cc(OC)c(C(=O)Nc2ccc3ccccc3c2)cc1OC | 12.2 |
| CSCCC(NS(=O)(=O)c1ccc(C)cc1)C(=O)NC1CCCCCC1 (centres unmarked) | 10 |
| Cn1c2ccccc2c2cc(C(=O)NNS(=O)(=O)c3ccc(F)cc3)sc21 | -5.97 |
| Cc1ccccc1NC(=O)CCCn1nc(C)c2c(C)n(-c3ccccc3)nc2c1=O | 3.18 |
| CCOC(=O)N1CCN(C(=O)CCCCCn2c(=S)[nH]c3cc4c(cc3c2=O)OCO4)CC1 | 28.1 |
| CC(C)[C@H](NC(=O)c1cccc(CN(Cc2ccccc2)C(=O)c2ccccc2)c1)C(=O)O | 6.06 |
| Cc1ccc(OCCNC(=O)c2cncc(Br)c2)cc1C | -1.46 |
| O=C(CCN1C(=O)/C(=C/c2ccc(Cl)cc2)SC1=S)Nc1cccc(C(=O)O)c1 | 10.4 |
| COC(=O)N/N=C/c1cc(C)n(-c2ccc(F)cc2)c1C | 4.9 |
| CC(=O)Nc1ccc(S(=O)(=O)N2CCC(C(=O)NC3CC3)CC2)cc1 | 13 |
| Cc1ccc(NS(=O)(=O)c2ccc(NC(=O)c3ccccc3C(=O)O)cc2)cc1C | 22.1 |
| COc1cc(CN2CCN(Cc3cn(C)c4ccccc34)CC2CCO)cc(OC)c1 (centres unmarked) | -43.7 |
| CCOC(=O)CNC(=O)c1c(C)nn(C)c1Cl | 12.6 |
| CCOc1ccc(N2C(=O)/C(=C/c3ccc(C)o3)N(C)C2=S)cc1 | 10.5 |
| CCc1ccccc1NC(=O)Nc1c(C)n(C)n(-c2ccccc2)c1=O | -20.9 |
| CCOC(=O)N1CCN(C(=O)Cc2ccccc2[N+](=O)[O-])CC1 | 11.2 |
| COc1cc(C2CC(=O)Nc3n[nH]c(-c4ccccc4)c32)cc(OC)c1OC (centres unmarked) | -3.57 |

| Structure (SMILES) | hERG current change (%, negative = inhibition) at 10uM [%] |
| --- | --- |
| Cc1ccc(Cn2nnc3c(=O)n(CC(=O)N4CCN(c5ccccc5)CC4)cnc32)cc1 | -21.4 |
| Cc1ccc2[nH]c3c(c2c1)CC/C(=C/c1ccccc1)C3=O | 7.54 |
| CSc1nsc(SCC(=O)NCc2ccccc2)n1 | 12 |
| O=C(CSc1cccc2cccnc12)Nc1cccc(S(=O)(=O)N2CCOCC2)c1 | -16.4 |
| COc1ccc(OCCC(=O)OCC(=O)NC2CCCCCCC2)cc1 | -5.48 |
| Nn1cc(-c2ccccc2)nc1SCC(=O)Nc1cccc(S(N)(=O)=O)c1 | 4.38 |
| COc1cccc(OC)c1OCCCCN1CCCC1 | -2.47 |
| COc1ccc(S(=O)(=O)N2CCSC2C)cc1C (centres unmarked) | 7.4 |
| COc1ccc2c(c1)-c1c(sn(-c3ccccc3)c1=S)C(C)(C)N2 | -1.28 |
| c1ccc(-c2nn3c(C4CCCCC4)nnc3s2)cc1 | -14.2 |
| Br.O=S(=O)(c1ccc(-c2csc(Nc3ccc(Br)cc3)n2)cc1)N1CCCC1 | 10.2 |
| Cc1ccc(CNC(=O)c2cn(C3CCCCC3)c(=O)c3c2c2ccccc2n3C)o1 | -2.58 |
| COC(=O)/C=c1/s/c(=C(\C#N)C(=O)NCc2ccco2)n(-c2ccc(C)cc2)c1=O | 10.2 |
| CC(C)(C)n1ncc2c(=O)n(CC(=O)N3CCc4ccccc43)cnc21 | -4.27 |
| O=C(O)c1ccccc1S(=O)(=O)NCC(O)COc1ccc(Br)cc1 (centres unmarked) | 7.48 |
| COc1cccc(-c2csc(N3CCN(C(=S)Nc4cccc(C)c4)CC3)n2)c1 | 29 |
| Cc1ccc(-n2nc3c(=O)n(CC(=O)NC4CCCCCC4)nc(C)c3c2C)cc1 | 5.97 |
| N#Cc1c(NC(=O)C2CC2)sc2c1CCCCC2 | -13.2 |
| Cc1ccccc1NC(=S)NCCO | 11.6 |
| O=C(Cc1cccs1)N/N=C/c1ccccc1 | 3.83 |
